Source: PubChem BioAssay AID1963576 (National Center for Advancing Translational Sciences (NCATS), 2024)
The whole screen tested about 46,000 compounds, of which about 60 (0.1%) were called active. About 3% were inconclusive and are not listed. Calls follow the shape of the dose curve; as a rule, active = well fitted inhibition curve with a large enough effect; inconclusive = small, poorly fitted or top-dose-only effect; inactive = no such curve, though single readings can be large or run the other way. Some of the results follow.

Assay: Primary qHTS assay for Inhibitors of ovarian cancer metastasis using an organotypic tumor microenvironment (TME) model. Also: nearly all actives have a fitted effect of over 65% in size.
Conditions: SKOV3ip1-GFP adhesion/invasion on 3D omental model, fluorescence; series mostly up to 45.8 µM; activity change, negative = inhibition: at the top concentration
Excerpt: PI: Ernst Lengyel MD., Ph.D. Department of Obstetrics and Gynecology, Section of Gynecologic Oncology University of Chicago Medicine, Chicago, Illinois. The tumor microenvironment (TME) is a key determinant of metastatic efficiency. We performed a quantitative high-throughput screen (qHTS) of diverse medicinal chemistry tractable scaffolds (44,420 compounds) and pharmacologically active small molecules (386 compounds) using a layered organotypic, robust assay representing the ovarian cancer metastatic TME. This 3D model contains primary human mesothelial cells, fibroblasts, and extracellular matrix, to which fluorescently labeled ovarian cancer cells are added. Initially, 100 compounds inhibiting ovarian cancer adhesion/invasion to the 3D model in a dose-dependent manner were identified. Of those, eight compounds were confirmed active in five high-grade serous ovarian cancer cell lines and were further validated in secondary in vitro and in vivo biological assays. […] Specifically, NCGC00117362 and PP-121 inhibited ovarian cancer adhesion, invasion, and proliferation, whereas milciclib inhibited ovarian cancer invasion and proliferation. […] To evaluate the clinical potential of NCGC00117362, structure - activity relationship studies were performed. […] The three compounds identified have promise as therapeutics for prevention and treatment of ovarian cancer metastasis.
PROTOCOL TABLE (as described by Inglese J, Shamu CE and Guy RK. 2007) SEQUENCE No. (e.g., 1, 2, 3, etc.); […] (e.g., Cells, Incubation, Reagent, etc.); VALUE; DESCRIPTION. 1; Cells; 4 uL; primary human omental fibroblast, black, clear bottom, low base, 1536-well Aurora assay plate. 2; Incubation; 48 hr; 37C. 3; Cells; 3 uL; 1,200 SKOV3ip1-GFP cells. 4; Compounds; 23nL; acoustic dispenser. 5; Incubation; 2 hr; room temperature. 6; Incubation; 16 hr; 37C. 7; Wash; 5 uL; 1x PBS. 8; Fixing; 5 uL; 4% paraformaldehyde (PFA). 9; Incubation; 15 min; room temperature 10; Wash, 5 uL; 1x PBS. 11; Detection; Fluorescence, excitation filter 488 nm, emission filter 509 nm. NOTES (numbers refer to Sequence numbers above) 1. For the 1,536-well format, 40 primary human omental fibroblasts and 400 mesothelial cells were seeded with 0.02 µg fibronectin and 0.02 µg collagen type I in 4 µL of growth media (2.3 mm2; Supplementary Fig. S1A). 2. Assay plates were incubated for 48 hours at 37 C. 3. After incubation, 1,200 SKOV3ip1-GFP were seeded in 3 µL of serum-free media (growth media minus FBS) on top of primary human omental cells. 4. Compounds or controls were added to each well immediately after the addition of the cancer cells. Compounds were screened in four doses (0.36-46 µmol/L), and the plates contained the positive control (Tomatine) in eight doses (0.035-75 µmol/L) and DMSO (equal volume controls) 5 - 6. The plates were incubated at room temperature for 2 hours and then at 37 degrees C for 16 hours. 7 - 10. Following incubation, the media were aspirated and each well washed with PBS (5 µL) and then fixed with 4% paraformaldehyde (PFA; 5 µL). After 15 minutes, the PFA solution was aspirated, PBS (5 µL) was added. 11. The number of GFP-labeled cells analyzed using a fluorescent cytometer TTP LabTech Acumen eX3 using 488 nm excitation filter and 509 nm emission filter. Data was normalized to the DMSO treated for negative and Tomatine treated wells for positive control. REFERENCES: Inglese J, Shamu CE and Guy RK, Reporting data from high throughput screening of small molecule libraries, Nature Chemical Biology, 2007, 3(8): 438-441. doi.org/10.1038/nchembio0807-438. Yasgar A, Shinn P, Jadhav A, Auld DS, Michael S, Zheng W, Austin CP, Inglese J and Simeonov A, Compound Management for Quantitative High-Throughput Screening. J. Assoc. Lab. Auto., 2008, 13: 79-89. doi: 10.1016/j.jala.2007.12.004.

Activity change, negative = inhibition, inactive:
Cc1ccccc1NC(=O)c1nc(-c2ccncc2)no1 -7.24%
CCC(C(=O)OCc1cc(=O)n2nc(CCOC)sc2n1)c1ccccc1 (stereo unspecified) -8.7%
Cc1ccc(CNC(=O)CCCCn2c(=O)c3ccccc3n(Cc3ccc(Cl)cc3)c2=O)cc1 23.1%
Cc1nc2sc(C(=O)NCc3ccc(Cl)cc3)c(NC(=O)c3ccccc3)c2c(C)c1C -25.7%
CCOc1cc(C2c3c(oc4ccccc4c3=O)C(=O)N2Cc2ccc3c(c2)OCO3)ccc1O (stereo unspecified) 1.19%
CN(C)CC(=O)N1CCC(c2ccc(NC(=O)c3ncc(C#N)[nH]3)c(C3=CCCCC3)c2)CC1 7.47%
Cc1cc(C)c2c(=O)cc(C(=O)Nc3ccc(S(=O)(=O)Nc4nc(C)cc(C)n4)cc3)oc2c1 -6.61%
Cc1ccc(-c2cn3c(n2)sc2cc(C(=O)N4CCCCC4)ccc23)cc1 -1.17%
Cc1ccc(NC(=O)NCc2cccn2Cc2ccccc2)cc1F 2.31%
COC(=O)C(C)Sc1nc2c([nH]c3ccccc32)c(=O)n1-c1ccc(OC)cc1 (stereo unspecified) -1.08%
CCN(CC)C(=O)CSc1nc2cc3c(cc2c(=O)n1Cc1ccc(C(=O)NCCc2ccc(OC)c(OC)c2)cc1)OCO3 -5.47%
CCOc1ccccc1NC(=O)Cn1c(=O)n(Cc2ccccc2)c(=O)c2c(C)c(C(=O)N(C)C)sc21 2.3%
Cc1cc(Nc2cccc(Cl)c2C)n2nc(Cc3ccccc3)nc2n1 -4.92%
COc1ccc(CNC(=O)CCCn2c(SCC(N)=O)nc3cc4c(cc3c2=O)OCO4)cc1 4.55%
Cc1cc(C)c(NC(=O)Cn2c(=O)n(CCCCC(=O)NCc3ccccc3Cl)c(=O)c3ccccc32)c(C)c1 8.92%
COc1ccc(CNC(=O)c2cnn3c(C)c(Cc4ccc(F)cc4)c(C)nc23)cc1 12.5%
Cc1ccc(OCCSc2nc3ccccc3n2CC(=O)N2CCOCC2)c(C)c1 0.842%
Cc1ccc(Cl)cc1NC(=O)Cn1nc2c(cc1=O)CC(C)CC2 (stereo unspecified) 6.47%
COc1ccc(Cl)c(Cn2c(NCCN)nc3c2c(=O)n(C)c(=O)n3C)c1 -11.1%
COc1ccc(C(=O)NCc2nnnn2-c2ccc(C)c(C)c2)cc1 -3.45%
CC(C)Cn1c(=O)c2ccccc2n2c(-c3cccc(Cl)c3)nnc12 6.98%
O=C(NNc1ncnc2c1cnn2-c1ccccc1)c1cccc(Cl)c1 -6.89%
CCCOc1ccccc1Cn1c(=O)sc2ccccc21 5.88%
Cc1ccc(Cl)cc1Nc1nc2ccccc2n2c(C)nnc12 1.09%
CCc1ccccc1NC(=O)CSc1nnc(-c2nonc2NC(C)=O)n1C 1.69%
CCOc1ccc(NC(=O)N2CCOc3ccccc32)cc1 -0.775%
N#Cc1ccc(-c2cccs2)nc1SCc1ccc(Cl)cc1Cl 0.627%
Cc1ccc(N2CCn3c2nc2c3c(=O)n(CCc3ccccc3)c(=O)n2C)cc1C 4%
Cc1[nH]c(=O)[nH]c(=O)c1C1N2CC3(C(C)C)CN1CC(C(C)C)(C2)C3=O (stereo unspecified) 8.6%
Cc1cc(NS(=O)(=O)c2ccc(NC(=O)COc3ccc(Br)cc3C)cc2)no1 0.627%
CCCCc1nn2c(=O)cc(COC(=O)c3ccccc3NC(=O)C(C)(C)C)nc2s1 1.9%
CN(CCOc1ccc(NS(C)(=O)=O)cc1)CCc1ccc(NS(C)(=O)=O)cc1 -5.46%
O=c1c2oc3ccccc3c2n(Cc2ccc(Cl)cc2)c(=O)n1Cc1ccc2c(c1)OCO2 -3.59%
NC(=O)C1CCN(c2ncnc3c2cnn3-c2ccccc2)CC1 8.6%
Fc1cccc(NCc2ccccc2-c2nnc(-c3ccccc3Cl)o2)c1 -3.63%
Cc1ccc(-n2c3c(c(=O)[nH]c2=O)C(NS(=O)(=O)c2ccc(Cl)cc2)(C(F)(F)F)C(=O)N3)cc1 (stereo unspecified) -0.109%
COc1cccc2c1cc1c(=O)n(CC(=O)N3CCCCC3)nc(C)n12 2.6%
Cc1ccc(C(=O)Nc2ccc(C(=O)O)cc2)cc1S(=O)(=O)Nc1ccccc1 -14.3%
COc1ccc(C)cc1NC(=O)C1CCCN(S(=O)(=O)c2ccc3c(c2)CCCN3C(C)=O)C1 (stereo unspecified) 2.2%
CCC(C)NS(=O)(=O)c1ccc(N2CCCCS2(=O)=O)cc1 (stereo unspecified) -7.06%
CCCCNC(=O)CCCN1C(=O)CCn2nc(-c3cccn3C)cc21 -6.72%
CCOCCCNC(=O)CN1C(=O)c2cccnc2Sc2ccccc21 3.19%
COc1cccc(NC(=O)Cn2c(=O)n(-c3cccc(OC)c3)c(=O)c3sc4ccccc4c32)c1 4.35%
Cc1ccc(Cl)cc1N1CCN(C2(c3ccccc3)C(=O)c3ccccc3C2=O)CC1 -14.2%
CCC(C)(C)NC(=O)C1CCC(CNS(=O)(=O)c2ccc3c(c2)CC(C)N3C(C)=O)CC1 (stereo unspecified) -5.8%
COCCNC(=O)CSc1nc2cc3c(cc2c(=O)n1CCCC(=O)NCCc1ccc(OC)c(OC)c1)OCO3 1.84%
COc1ccc2c(CNCc3ccco3)c(C(=O)O)n(Cc3ccc(F)cc3Cl)c2c1 4.06%
O=C(Cn1c(SCCOc2ccccc2Cl)nc2ccccc21)N1CCOCC1 -14.8%
CCN(CC)CCn1c(=O)c(Cc2ccc(OC)cc2)nc2ccccc21 5.88%

outcome, inactive:
Cc1ccc(-n2ncc(C(=O)Nc3ccc(C)c(F)c3)c2C2CCN(C(=O)OC(C)(C)C)CC2)cc1C
O=C(Nc1ccc2nc(SCC(=O)N3CCCC3)sc2c1)c1ccc(F)cc1
COc1cc(Cl)c(C)cc1NC(=O)c1cn(CC(C)C)c(=O)c2cc(OC)c(OC)cc12
COc1cc(CN(CC2CCCO2)C(=O)c2ccccc2F)cc(OC)c1OC (stereo unspecified)
CC(NC(=O)c1ccccc1)c1nc2ccccc2n1Cc1ccc(Cl)cc1 (stereo unspecified)
CC(C)OCCCNC(=O)CCCn1c(SCC(=O)c2ccc(Br)cc2)nc2c(sc3ccccc32)c1=O
CCOc1ccc(NC(=O)CN2C(=O)COc3ccc(S(=O)(=O)Nc4ccccc4)cc32)cc1
CCC(=O)N1CCc2cc(Br)cc(S(=O)(=O)N3CCC(C(=O)NC(C)(C)C)CC3)c21
Cc1ccnc(NC(c2ccccc2F)c2ccc3cccnc3c2O)c1 (stereo unspecified)
CCOC(=O)c1ccc(NC(=O)CN2C(=O)c3cccnc3Oc3ccc(Cl)cc32)cc1
CCC(CC)C(=O)Nc1nnc(SCc2cc(=O)c3ccccc3[nH]2)s1
Fc1ccccc1N1CCN(c2nnc(C(F)(F)F)c3nnn(Cc4ccccc4)c23)CC1
